{
  "source": "the BET-seq Pho4 binding data (Le et al. 2018)",
  "note": "This is one part of the list. Values were computed here from the reads of four pooled replicates and scatter widely.",
  "data": [
    {"molecular_target": "T1, Pho4 (S. cerevisiae) (UniProt P07270)", "T1 sequence": "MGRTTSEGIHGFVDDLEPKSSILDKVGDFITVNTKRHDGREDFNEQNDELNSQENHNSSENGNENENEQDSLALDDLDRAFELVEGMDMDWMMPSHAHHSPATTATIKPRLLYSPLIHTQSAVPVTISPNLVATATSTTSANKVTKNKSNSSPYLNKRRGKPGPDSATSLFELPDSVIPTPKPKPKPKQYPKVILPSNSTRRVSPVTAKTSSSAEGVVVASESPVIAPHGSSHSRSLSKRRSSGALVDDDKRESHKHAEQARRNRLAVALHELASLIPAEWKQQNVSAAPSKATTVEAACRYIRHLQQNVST", "experiment": "relative binding free energy (BET-seq); higher = weaker binding", "conditions": "reference: library average", "units": {"relative binding free energy": "kcal/mol"}, "values": [
      {"sequence": "TTTGTCACGTGTCAGT", "relative binding free energy": 0.05},
      {"sequence": "GATTGCACGTGCATTG", "relative binding free energy": 0.16},
      {"sequence": "TGTGTCACGTGAGTTC", "relative binding free energy": 0.38},
      {"sequence": "GGTGTCACGTGGAGAG", "relative binding free energy": 0.14},
      {"sequence": "AGTTACACGTGAAGGA", "relative binding free energy": 0.33},
      {"sequence": "TTAAGCACGTGTGGAT", "relative binding free energy": 0},
      {"sequence": "ATTTACACGTGGAGTG", "relative binding free energy": 0.13},
      {"sequence": "TTGTGCACGTGCGGTC", "relative binding free energy": 0.02},
      {"sequence": "TAGATCACGTGGGTAA", "relative binding free energy": 0.06},
      {"sequence": "ATAATCACGTGTTGGT", "relative binding free energy": 0.13},
      {"sequence": "CGTGTCACGTGTAGAG", "relative binding free energy": -0.07},
      {"sequence": "TGCTTCACGTGGATTA", "relative binding free energy": 0.32},
      {"sequence": "ACAATCACGTGTGGTG", "relative binding free energy": 0.12},
      {"sequence": "GTTGACACGTGGGCAG", "relative binding free energy": -0.12},
      {"sequence": "TGTTGCACGTGAACTT", "relative binding free energy": 0.08},
      {"sequence": "CTTGGCACGTGGCGGG", "relative binding free energy": -0.23},
      {"sequence": "TCTTCCACGTGTGTTG", "relative binding free energy": 0},
      {"sequence": "GTAGTCACGTGTGTCA", "relative binding free energy": 0.1},
      {"sequence": "ATTTCCACGTGTGGTC", "relative binding free energy": 0.24},
      {"sequence": "ATGCGCACGTGGTTAG", "relative binding free energy": -0.23},
      {"sequence": "GGGATCACGTGAGTCG", "relative binding free energy": 0.36},
      {"sequence": "TTATGCACGTGGGAGC", "relative binding free energy": -0.16},
      {"sequence": "GACTGCACGTGTGGGT", "relative binding free energy": 0.15},
      {"sequence": "ATTAGCACGTGTCATG", "relative binding free energy": 0.01},
      {"sequence": "AGGCTCACGTGGGTGT", "relative binding free energy": 0.19},
      {"sequence": "ATGGACACGTGATGGC", "relative binding free energy": 0.15},
      {"sequence": "GATGGCACGTGGAAAT", "relative binding free energy": 0.29},
      {"sequence": "TTAGTCACGTGTGTTG", "relative binding free energy": 0.16},
      {"sequence": "TTGGACACGTGTAGCT", "relative binding free energy": 0},
      {"sequence": "GGTCACACGTGGAGGG", "relative binding free energy": -0.1},
      {"sequence": "TGCTTCACGTGTGGTG", "relative binding free energy": 0.23},
      {"sequence": "GTATCCACGTGTGTTT", "relative binding free energy": 0.06},
      {"sequence": "GTGAACACGTGTGAGA", "relative binding free energy": 0.16},
      {"sequence": "TTGCACACGTGTTGGT", "relative binding free energy": 0.08},
      {"sequence": "TGTTTCACGTGGATTT", "relative binding free energy": 0.25},
      {"sequence": "ATGTACACGTGAGATG", "relative binding free energy": 0.33},
      {"sequence": "GGTTCCACGTGGACGT", "relative binding free energy": 0.24},
      {"sequence": "ATCGGCACGTGGAGTA", "relative binding free energy": -0.08},
      {"sequence": "GTGCTCACGTGATGGC", "relative binding free energy": 0.47},
      {"sequence": "TAGGGCACGTGTGACG", "relative binding free energy": -0.06},
      {"sequence": "ATTTACACGTGAAATT", "relative binding free energy": 0.59},
      {"sequence": "ATATTCACGTGTGGCT", "relative binding free energy": 0.15},
      {"sequence": "TTTCGCACGTGTGGGC", "relative binding free energy": 0.05},
      {"sequence": "GGGTGCACGTGAGGTC", "relative binding free energy": 0.36},
      {"sequence": "GGTGGCACGTGTTAGT", "relative binding free energy": -0.03},
      {"sequence": "GTTATCACGTGATTGA", "relative binding free energy": 0.3},
      {"sequence": "TTTGTCACGTGGCAAG", "relative binding free energy": -0.05},
      {"sequence": "TCTAGCACGTGGTGAT", "relative binding free energy": -0.16},
      {"sequence": "TTTTGCACGTGTTAAG", "relative binding free energy": 0.09},
      {"sequence": "GGCTTCACGTGAAGGT", "relative binding free energy": 0.44},
      {"sequence": "GATGGCACGTGAGATT", "relative binding free energy": 0.18},
      {"sequence": "TGATACACGTGGTGTT", "relative binding free energy": -0.13},
      {"sequence": "AAGTGCACGTGTTCTG", "relative binding free energy": -0.21},
      {"sequence": "TGGGTCACGTGTAGGC", "relative binding free energy": 0.13},
      {"sequence": "GTTTCCACGTGGGGGT", "relative binding free energy": -0.16},
      {"sequence": "GTATACACGTGTTAAG", "relative binding free energy": 0.07},
      {"sequence": "GTATGCACGTGAGTCG", "relative binding free energy": 0.1},
      {"sequence": "ATTTTCACGTGGCCGG", "relative binding free energy": 0.32},
      {"sequence": "GTTGTCACGTGAAGTT", "relative binding free energy": 0.33},
      {"sequence": "AAGAACACGTGAGTTG", "relative binding free energy": 0.29},
      {"sequence": "TTTATCACGTGTGAGG", "relative binding free energy": 0.21},
      {"sequence": "AGGCGCACGTGTAGTA", "relative binding free energy": 0.04},
      {"sequence": "GGAAGCACGTGGTGCT", "relative binding free energy": -0.12},
      {"sequence": "TAGGGCACGTGGGTGT", "relative binding free energy": -0.31},
      {"sequence": "GGGTCCACGTGGGAAG", "relative binding free energy": -0.03},
      {"sequence": "GGATGCACGTGTAGGT", "relative binding free energy": 0.06},
      {"sequence": "TTTAGCACGTGAGGGA", "relative binding free energy": 0.21},
      {"sequence": "TGCTTCACGTGTGCTG", "relative binding free energy": 0.16},
      {"sequence": "TTAAGCACGTGTGACG", "relative binding free energy": -0.05},
      {"sequence": "TGGGTCACGTGCTCTT", "relative binding free energy": 0.06},
      {"sequence": "GGTTACACGTGTAGAA", "relative binding free energy": 0.26},
      {"sequence": "GGGTGCACGTGATTCA", "relative binding free energy": 0.11},
      {"sequence": "GTTATCACGTGATGTA", "relative binding free energy": 0.31},
      {"sequence": "GGCGGCACGTGGCATT", "relative binding free energy": -0.09},
      {"sequence": "GGATTCACGTGTGTAT", "relative binding free energy": 0.36},
      {"sequence": "TCCTGCACGTGTGGTT", "relative binding free energy": 0},
      {"sequence": "TTCGACACGTGTGGTG", "relative binding free energy": 0.08},
      {"sequence": "GGATACACGTGTGGCA", "relative binding free energy": 0.16},
      {"sequence": "GTGTGCACGTGCGGAA", "relative binding free energy": -0.1},
      {"sequence": "GGTAGCACGTGGGTTC", "relative binding free energy": -0.17},
      {"sequence": "GGAATCACGTGGGCTA", "relative binding free energy": 0.12},
      {"sequence": "TTTGTCACGTGTAATC", "relative binding free energy": 0.28},
      {"sequence": "TAGTACACGTGAAGGA", "relative binding free energy": 0.39},
      {"sequence": "GGTATCACGTGGGTAC", "relative binding free energy": -0.02},
      {"sequence": "CGGGGCACGTGCTTAG", "relative binding free energy": -0.15},
      {"sequence": "CAGTACACGTGATTGT", "relative binding free energy": 0.23},
      {"sequence": "TAGGGCACGTGTGCAA", "relative binding free energy": -0.17},
      {"sequence": "GAGTACACGTGGCGTT", "relative binding free energy": -0.02},
      {"sequence": "CTTTTCACGTGGATAA", "relative binding free energy": 0.24},
      {"sequence": "TTTGTCACGTGGCCGT", "relative binding free energy": -0.03},
      {"sequence": "GATGTCACGTGGCTGG", "relative binding free energy": 0.01},
      {"sequence": "CAAAGCACGTGGGTTT", "relative binding free energy": -0.11},
      {"sequence": "CGGTGCACGTGTCGTA", "relative binding free energy": 0.03},
      {"sequence": "ATTTTCACGTGCGATG", "relative binding free energy": 0.17},
      {"sequence": "TGATTCACGTGTCTAT", "relative binding free energy": 0.25},
      {"sequence": "TGATACACGTGTTTGA", "relative binding free energy": 0.02},
      {"sequence": "TGTATCACGTGCAAGT", "relative binding free energy": 0.08},
      {"sequence": "TGGCGCACGTGTGAGC", "relative binding free energy": 0.09},
      {"sequence": "TTAAGCACGTGGTATT", "relative binding free energy": -0.11},
      {"sequence": "GATGCCACGTGGGTTT", "relative binding free energy": 0.06},
      {"sequence": "TTTCTCACGTGATGGC", "relative binding free energy": 0.29},
      {"sequence": "GGGGGCACGTGTGCTT", "relative binding free energy": -0.09},
      {"sequence": "ATAGTCACGTGAGCTG", "relative binding free energy": 0.47},
      {"sequence": "TTTTTCACGTGTACTG", "relative binding free energy": 0.37},
      {"sequence": "GAGTTCACGTGACTTG", "relative binding free energy": 0.35},
      {"sequence": "AGGTGCACGTGAGGGT", "relative binding free energy": 0.18},
      {"sequence": "TTTTTCACGTGGGTGG", "relative binding free energy": 0.28},
      {"sequence": "GGGGGCACGTGCCCGG", "relative binding free energy": -0.24},
      {"sequence": "GGCGTCACGTGTAAAG", "relative binding free energy": 0.2},
      {"sequence": "GGCTCCACGTGTTGGG", "relative binding free energy": 0.22},
      {"sequence": "TGAGTCACGTGTTTCG", "relative binding free energy": 0.05},
      {"sequence": "TTTCGCACGTGGAGTT", "relative binding free energy": 0.08},
      {"sequence": "GGGAGCACGTGGCGGA", "relative binding free energy": -0.13},
      {"sequence": "GGCGCCACGTGGAGGT", "relative binding free energy": -0.12},
      {"sequence": "ATGATCACGTGGATTG", "relative binding free energy": 0.06}
    ]}
  ]
}
